Sequences and labels used below:
B1: LINE1-mini (parent)
chain: GGCAGAGCUCAACACAGCGUGGCAAAGUGGCUGUGGCUAGACUGCC

The source gives no read counts; variants with many changes may rest on few reads.

The series covers variants of B1. The series is described as follows: self-cleavage, relative activity (ratio to wild type); higher = more cleavage; in vitro, sequencing; the parent is a self-cleaving ribozyme.
For the variant UGCAGAGAUCAACACAGCGUGACAAAGUAGCUGUGGCUAGACUGCC [G1U C8A G22A G29A], the self-cleavage was determined as 0.05.
The value for UGCAGAGUUAAACACAGCGUGGCAAAGUGGCUGUGGUUAGACAGCC [G1U C8U C10A C37U U43A] was 0.01; that for UGCAGAGGUCAUCACAGCGUGGGAAAGUGGUUGUGGCUAGACUGCC [G1U C8G A12U C23G C31U] was 0.02.
The value for UGUAGAGCUCAACACAGCGUGGCAAAGUGGCUGUGGCUAAACUGCC [G1U C3U G40A] was 0.18; that for UGCAGAGUUCAACACCGCGUGGCGAAGUGGCUGUGGCUUGACUGCC [G1U C8U A16C A24G A39U] was 0.02; that for UGCAGAGAUCAACACAGCGUGGAAAAGUGGCUGUGGCUAGACUGAG [G1U C8A C23A C45A C46G] was 0.1.
UGGACAGUUCAACACAGCGUGGCAAAGUGGCUGUGGCUAGACGGAC [G1U C3G G5C C8U U43G C45A]: the self-cleavage was 1.03.
With UGCAGAGUUAAACACACCGUGGCAAAGUGGCUGUGGCUAGACUGCC [G1U C8U C10A G17C], the self-cleavage is 0.03.
The value for UGCAGAGGUCACCACAGCGUGGCAAAGUGGCUGUGGCUAGACUGCC [G1U C8G A12C] was 0.01.
The value for UGCAGAGAUCGACACAGCGUGGCAGAGUGUCUGUGGCUAGACUGCC [G1U C8A A11G A25G G30U] was 0.01.
Regarding UGGAUAGCUCAACACAGCGUGGCAAAGUGGCUGUGUCUAGACUGCC [G1U C3G G5U G36U], the self-cleavage is 0.16.
On to UGUUGAGCUCAACACAGCAUGGCAAAGUGGCUGUGGUUAGACUGCC [G1U C3U A4U G19A C37U], for which the self-cleavage was found to be 0.04.
The value for UGCAGAGGUCAACACAGCGUGGCAAAGUGGCUGUGGCUGGUCUGCC [G1U C8G A39G A41U] was 0.03; that for UGGAGAGCUCAACACAGUGUGGCAAAGUGGCUGUGGCUAGACUGCC [G1U C3G C18U] was 0.03; that for UGUAGAGCUCAACACAGCGUUGCAAAGUGGCUGUGGCUAGACUGCC [G1U C3U G21U] was 0.28.
The value for UGCAGAGGUCAACUCAGCGUGGGAAAGUGGCUGUGGCGAGACUGCC [G1U C8G A14U C23G U38G] was 0.01.
Consider UGCAGAGUUCACCACAGCGUUUCACAGUGGCUGCGGCUAUACUGCC [G1U C8U A12C G21U G22U A25C U34C G40U], for which the self-cleavage was 0.
With UGCAGAGUUCAACACAGCGUGGCAAAGUGGCUGUGGCUAGGCUGCC [G1U C8U A41G], the self-cleavage turned out to be 0.11.
The value for UGCAGAGGUCAACACAGCGGGGCAAAGUGGCUGUGGCUAGACGGCC [G1U C8G U20G U43G] was 0.02; that for UGCAGAGAUCAGCACAGCGUGGCAAAGUGUGUGGGGCUAGACUGCC [G1U C8A A12G G30U C31G U34G] was 0.08; that for UGGAGAGCUCAACACAGCGUGGCAAAGUGGCCGUGGCGAUACUGAC [G1U C3G U32C U38G G40U C45A] was 0.08.
On to UGGAGAGCUCAACACAGUGAGGCAAAGUGGCUGUGGAUAGACCGCC [G1U C3G C18U U20A C37A U43C], for which the self-cleavage came to 0.08.
The value for UGUAGAGCUCAACACAGCGUGGCAAAGUGGUUGUGGCUCGACUGCC [G1U C3U C31U A39C] was 0.06; that for UGGACAGCUUAACACAGCGUGGCAAAGUGGCUGUGGCUAGACUGCC [G1U C3G G5C C10U] was 0.13.
Take UGGAGAGCUCAACACAUCGUGGCAAAGAGGGUGUGCCUAGACUGCC [G1U C3G G17U U28A C31G G36C]: the self-cleavage was 0.05.
The value for UGCAGAGAUCAACAAAGAGUGGCAAAGUGUCUGUGGCUAGACUGCC [G1U C8A C15A C18A G30U] was 0.07.
The value for UGCAGAGAGCCACAAAGCGUGGCAAAGUGGCUGUGGCUAGACUGCA [G1U C8A U9G A11C C15A C46A] was 0.01; that for UGCAGAGAUCAACACCGCGUGGCAAAGUGGCUGUGGCUAGACUGCG [G1U C8A A16C C46G] was 0.03; that for UGCAGAGGUCAACACAGCGUGGCAAAGUGGCGGUAGCUAAACUGCC [G1U C8G U32G G35A G40A] was 0.01.
The value for UGGAGAGCUCAACACAGCGUGGCAAAGUGGCUGUGGUUAGCCUGUC [G1U C3G C37U A41C C45U] was 0.07.
Regarding UGCAGAGAUCAACACAGCGUGGCAAAGUGGCUGUGGCUCGACAGUC [G1U C8A A39C U43A C45U], the self-cleavage worked out at 0.07.
The value for UGCAGAGAUCAUCACAGCGAGGUAAAGUGGCUGUAGCUUGACUGCC [G1U C8A A12U U20A C23U G35A A39U] was 0.04; that for UGCAGAGGUCAACACAGCGUGGCAAAGUGGCUGUGGCUAGACUGGC [G1U C8G C45G] was 0.01; that for UGGAGAGCUCAACACAGCGUGGCAAAGUGGCUGUGGCUAGACCGCC [G1U C3G U43C] was 0.16.
The value for UGUCGAGCUCAACAUAGCGUGGCUAAGUGGCUGUGGCUACUCUGCC [G1U C3U A4C C15U A24U G40C A41U] was 0.41; that for UGCAGAGGUCACCACAGCGUGGCAAAGUGGCUGUUGCUAGACUGCC [G1U C8G A12C G35U] was 0.01.
Consider UGGAGAGCUCAACACAGCGUGGCAACGUGGCUGUGGCUAGACUGCC [G1U C3G A26C], for which the self-cleavage came out at 0.09.
The value for UGCAGAGAUCCACACAGCGUGGCAAAGUGGCUGUGUCUAGACUGCC [G1U C8A A11C G36U] was 0.02.
The value for UGCAGAGGUAAACACAUCGUGGCAACGUGGUUGUGGCUAGACUGCU [G1U C8G C10A G17U A26C C31U C46U] was 0.01; that for UGUAGAGCUCAAUACAGCGUGGCAGAGUGUCUGUGGCUAGACUGCC [G1U C3U C13U A25G G30U] was 0.69.
The value for UGCAGAGGUCAACACAGCGAGGUAAAGUGGCUUUGGCUAGACUACC [G1U C8G U20A C23U G33U G44A] was 0.02; that for UGCAGAGAUCAACACAGCGUGGCAAUGUGGCUGUGGCUAUACUGCC [G1U C8A A26U G40U] was 0.06; that for UGCAGAGGUCAACACAGCGUGGCAAAUUGGCUGUGGCUAGAAUGCC [G1U C8G G27U C42A] was 0.01.
UGUAGAGCUCAACACCGCGUGGCAAAGUGGCUGUGGAUAGACUGCC [G1U C3U A16C C37A]: the self-cleavage is 0.11.
The value for UGCAGAGGUCAACACAGCGUGGCAAAGUGGCUGUGGCUACACUGCC [G1U C8G G40C] was 0.04; that for UGGAGAGUUCAACACAGCGUGGCAAAGUGGCUGUGGCUAGACUGCC [G1U C3G C8U] was 0.13.
The value for UGCAGAGAUCAACACAGCGUGGCAAAGUGGCUGUGGCUAGACUGCG [G1U C8A C46G] was 0.1.
The value for UGGAGAGCUCAAAACAGCGUGGCAAAGUUGCUGUGGCUAGACUGCC [G1U C3G C13A G29U] was 0.05.
Consider UGGAGAGCUCAACACAGCGUGGCAAAGUGGCUGUGGCUAGACUGCA [G1U C3G C46A], for which the self-cleavage is 0.22.
Consider UGUAAUGCACAACACAGCGUGGCAAAUUGGCUGUGGCUAGAGUGCC [G1U C3U G5A A6U U9A G27U C42G], for which the self-cleavage stood at 0.07.
The value for UGCAGAGAUCAACACAGCGUGGCAAAGUGGCGGUGGCUAGAUUGCC [G1U C8A U32G C42U] was 0.02.
The value for UGUCGAGCUCAACACAGCGUGGCAAAGUGGCUGUGGCUAGACUGCC [G1U C3U A4C] was 0.11; that for UGUUGAGCUCAACACAGCGUGGCAAAGUGGCUGUGGCUAGACUGCC [G1U C3U A4U] was 0.06; that for UGCAGAGAUCAACACAGCGUGGCAAAUUGGCUGUAGCUAGACUGCC [G1U C8A G27U G35A] was 0.03.
For UGCAGAGGUCAACACAGCGUAGCAAAGUGGCUGUGGCUAGACUGCC [G1U C8G G21A], the self-cleavage stood at 0.23.
The value for UGCAGAGUUCAACACUGCGUGCCAAAAUGGCUCGGGCUAGACUGCC [G1U C8U A16U G22C G27A G33C U34G] was 0.03.

These data come from the RNAGym collection of RNA variant scans (doi:10.7554/elife.90254).
